Out of some 150,000 compounds screened, about 540 (0.36%) showed an effect of 50% or more. This is one part of the list.

The subject of this experiment is Plasmodium falciparum. The experiment is described as follows: Primary screen in NF54 nanoGlo assay, in single point, at 2uM, 72h; a lower Z score goes with more inhibition. It is filed as functional, Erythrocyte. The following applies: timepoint 72 hour.
As for `O=C(NCCCNc1ncccn1)NCC(F)(F)F`, the “% Inhibition” value is listed as -2% and the Z score turned out to be 0.43.
For `O=C(CN1N=C(c2ccccc2)c2ccccc2S1(=O)=O)NCc1ccc(F)cc1`, the “% Inhibition” value stood at 15% and the Z score was -1.89.
With `Cc1n[nH]c([C@@H]2CN(C(=O)C(C)C)CCCN2Cc2ccccc2)n1`, the “% Inhibition” value is -4% and the Z score stood at 0.71.
Taken in the same sequence, the figures for `Cc1sc(NC(=O)C2CCC(C(=O)O)NC2)nc1-c1cccc(Cl)c1` (stereo not drawn) were -2% and 0.35.
As for `Cc1nc(CN2CCc3[nH]nc(-c4ccc(-c5ccccc5)cc4)c3C2)c[nH]1`, the “% Inhibition” value is given as -1% and the Z score came out at 0.16.
As for `Cc1cccc(NC(=O)Cn2cnc(-c3noc(-c4cccc(F)c4)n3)c2)c1`, the “% Inhibition” value is -8% and the Z score worked out at 1.12.
As for `c1ccc(-c2nc3nccc(-c4ccc5c(c4)OCO5)n3n2)cc1`, the “% Inhibition” value was -15% and the Z score stood at 2.13.
Taken in the same sequence, the figures for `c1ccc(-c2nc(CNc3nc(C4CC4)no3)cs2)nc1` were -12% and 1.52.
Taken in the same sequence, the figures for `CCN1CCN(C2CCN(C(=O)C3CCN(c4nc(C)c5cc(C(C)C)ccc5n4)CC3)CC2)CC1` were -2% and 0.25.
Take `COCCn1cc(NC(=O)N2CCCCCCC2)cn1`: the “% Inhibition” value amounted to 3% and the Z score is -0.45.
In the case of `Cc1cc(C)n(Cc2c(C(=O)N3CC[C@H](Cc4nnc(CC(C)C)o4)C3)noc2C)n1`, the “% Inhibition” value was -6% and the Z score amounted to 0.8.
Taken in the same sequence, the figures for `C=CCC(O)(CC=C)[C@H](C)NC(=O)c1ccnnc1` were -13% and 1.37.
For `COCc1nccc(N2CCC[C@@](O)(c3ccc(Cl)cc3)C2)n1`, the “% Inhibition” value is -1% and the Z score was determined as 0.2.
With `CCC(CC)C1CC(NC(=O)c2c(C)nn(C)c2Cl)CCO1` (stereo not drawn), the “% Inhibition” value was -15% and the Z score is 2.71.
With `CCOC1(CNC(=O)c2coc(COC)n2)CCCC1`, the “% Inhibition” value is -13% and the Z score was 1.34.
For `Cc1c(CNC(=O)Nc2cnn([C@@H](C)C3CC3)c2)cnn1C`, the “% Inhibition” value is 0% and the Z score is on record as 0.03.
Regarding `CC(C)c1scnc1NC(=O)[C@@H]1CCCCC(=O)N1`, the “% Inhibition” value is reported as -9% and the Z score was found to be 0.95.
Take `Cc1cc(C(=O)N2CCc3cc4ccc3[C@@H]2c2cccc(c2)OCCCNC(=O)c2cc(ccc2O)O4)n(C)n1`: the “% Inhibition” value was -11% and the Z score amounted to 1.41.
For `O=C([C@@H]1CNc2ccccc2O1)N1CCOCC1` the same measures were 36% and -4.9.
Regarding `Cc1c(Br)cccc1CCNC(=O)[C@H]1CCNC(=O)C1`, the “% Inhibition” value is recorded as -16% and the Z score is on record as 1.76.
Take `COc1ccccc1NC(=O)c1cnn2c(=O)cc(C)[nH]c12`: the “% Inhibition” value is reported as -10% and the Z score came out at 1.17.
For the compound `CC(C)NC(=O)c1nsc(C(=O)N2CCN(C3CCCCC3)CC2)c1N`, the “% Inhibition” value is recorded as -11% and the Z score worked out at 1.32.
As to `CCc1csc(CNC(=O)c2ccc(N[C@@H](C)c3cnn(C)c3)nc2)n1`, the “% Inhibition” value is given as -11% and the Z score amounted to 1.56.
For the compound `O=C(Cc1csc(-c2cccnc2)n1)Nc1ccc(N2CCOCC2)cc1`, the “% Inhibition” value was -8% and the Z score was 1.1.
In the case of `CCCN(C[C@H]1CCOC1)S(=O)(=O)Cc1ccccc1F`, the “% Inhibition” value was -1% and the Z score worked out at 0.12.
For `Cc1ocnc1C(=O)N1CC[C@@H]2OCc3cccc(c3)Oc3cccc(c3)CCC(=O)N(C)CC(=O)N[C@@H]2C1` the same measures were -11% and 1.34.
Take `CNC[C@H](C)C(=O)N(Cc1ccccc1)CC1CCOCC1`: the “% Inhibition” value is given as -3% and the Z score stood at 0.39.
As to `COCc1noc(C(C)N2CCOC(c3nccs3)C2)n1` (stereo not drawn), the “% Inhibition” value is recorded as 9% and the Z score is recorded as -0.88.
Take `CCn1c(N2CC[C@H](S(=O)(=O)NC(C)C)C2)nnc1C(C)(C)C`: the “% Inhibition” value is on record as -8% and the Z score stood at 1.06.
For `O=C1CCCc2nc(-c3ccccc3Br)sc21`, the “% Inhibition” value is -4% and the Z score is reported as 0.77.
In the case of `O=C(N[C@H]1CCc2ccccc21)c1nnn2c1c(=O)[nH]c1cc(F)ccc12`, the “% Inhibition” value is given as 2% and the Z score was -0.44.
`CC[C@H]1C[C@@H](NC(=O)c2ccccc2)C[C@@H](c2ccc(Cl)cc2)O1`: the “% Inhibition” value is listed as -4% and the Z score is reported as 0.41.
With `CC(C)(NCc1ccc(C#N)cc1F)C(=O)N1CCCC1`, the “% Inhibition” value is reported as 5% and the Z score is given as -0.53.
As to `Cc1cccc(NS(=O)(=O)c2cc(-c3nc(C)c(C(=O)N4CCCCC4)s3)cs2)c1C`, the “% Inhibition” value was -2% and the Z score is reported as 0.35.
Taken in the same sequence, the figures for `COc1ccccc1CNC(=O)c1cc2ccncc2n1C` were -1% and 0.17.
For the compound `Cc1c(Cl)cccc1NC(=O)c1csc(-c2ccc(N3CCCC3)nc2)n1`, the “% Inhibition” value is given as -13% and the Z score stood at 1.56.
As for `CNC(=NCCc1csc(N2CCCC2)n1)NCc1ccco1`, the “% Inhibition” value is 9% and the Z score is reported as -0.79.
Taken in the same sequence, the figures for `CCn1ncc(C(=O)NC(C)C2CC3CCC2C3)c1C` (stereo not drawn) were -10% and 1.51.
For `C[C@@]1(C(=O)NCc2ccccc2)Cn2cnc(C(=O)NCCc3ccc(Cl)cc3)c2C(=O)N1C1CC1` the same measures were -9% and 1.78.
In the case of `COCCCNC(=O)[C@H]1CCCN(c2nnc3ccc(C(F)(F)F)cn23)C1`, the “% Inhibition” value is -6% and the Z score was 0.62.
Take `O=C(CNc1ccccc1N1CCCCC1)NC1CCCC1`: the “% Inhibition” value is listed as -7% and the Z score is 0.93.
On to `CC(C)NC(=O)C(=O)Nc1cc(Cl)ccc1Cl`, for which the “% Inhibition” value is recorded as -8% and the Z score was 1.5.
For `CN(CCc1ccccc1)[C@@H]1[C@H](O)[C@H](CO)O[C@@H]1CNCc1ccc(F)cc1` the same measures were -11% and 1.68.
In the case of `COCCN(CCC#N)[C@@H]1C=CCCC1`, the “% Inhibition” value worked out at 5% and the Z score was -0.47.
On to `O=C(c1noc2ccc(S(=O)(=O)N3CCN(C4CCCCC4)CC3)cc12)N1CCCC1`, for which the “% Inhibition” value is -10% and the Z score came out at 1.56.
For the compound `Cn1c(N(CCO)Cc2ccccc2)nc2c1c(=O)n(Cc1ccc(Cl)cc1Cl)c(=O)n2C`, the “% Inhibition” value was -7% and the Z score came out at 0.74.
Taken in the same sequence, the figures for `NC(=O)C1CCN(C(=O)c2cc(S(=O)(=O)N3CCc4ccccc4C3)ccc2Cl)CC1` were -5% and 0.7.
In the case of `O=S(=O)(NCCn1nc(-c2ccccn2)cc1C1CC1)C1CC1`, the “% Inhibition” value is on record as -5% and the Z score turned out to be 0.7.
For `Cc1cc(C)n(-c2ccc(CC(=O)Nc3ccc(Br)cc3F)cc2)n1`, the “% Inhibition” value was -12% and the Z score is recorded as 2.34.
For `N=C(NS(=O)(=O)Cc1ccccc1)N1CCN(c2ccccc2F)CC1`, the “% Inhibition” value is given as -15% and the Z score is 2.3.
For the compound `Cc1ccccc1-c1cn(CC(=O)NCCc2ccc(Cl)cc2)nc1N1CCOCC1`, the “% Inhibition” value is -15% and the Z score is 1.8.
Turning to `O=C(COc1ccccc1)NC1(C(=O)NC2CCCC2)CCCCC1`, the “% Inhibition” value was found to be 1% and the Z score is listed as -0.07.
On to `CC[C@@H](CO)NCc1ccc(-c2ccn(Cc3scnc3C)n2)s1`, for which the “% Inhibition” value is recorded as -5% and the Z score was 0.73.
Taken in the same sequence, the figures for `COc1cccc(CN2CCC(N3C[C@H](OC)[C@@H]3c3cccnc3)CC2)n1` were -8% and 0.99.
For the compound `COc1cc(CN2CC[C@H](c3cnn(C)c3)C2)cc(OC)c1OC`, the “% Inhibition” value stood at 1% and the Z score is recorded as -0.11.
For `CC(C)NC(=O)[C@@H]1CCC(=O)N1C1CCN(C(=O)c2cc(F)cc(F)c2)CC1` the same measures were 6% and -1.14.
With `OC1CCN([C@H]2CCN(Cc3ccccc3OC(F)F)C[C@@H]2O)CC1`, the “% Inhibition” value was -3% and the Z score is 0.42.
`O=C(CNC[C@]1(c2ccc(F)cc2)CCOC1)Nc1cnccn1`: the “% Inhibition” value is on record as -14% and the Z score was 1.27.
Regarding `C[C@H](c1nc(-c2ccon2)no1)C1CCC1`, the “% Inhibition” value was found to be 0% and the Z score came out at 0.01.
On to `Cc1cc(C)cc(C(=O)N[C@H](c2ccccc2)c2nnc(N3CCCC3)o2)c1`, for which the “% Inhibition” value is -5% and the Z score turned out to be 0.53.
Regarding `Cc1noc(C)c1CN(C)C(=O)Nc1ccc(Cl)cc1Cl`, the “% Inhibition” value is -1% and the Z score was 0.26.
As to `CCC1(CC)CN(c2nc(C)cnc2C)CCO1`, the “% Inhibition” value is -5% and the Z score was found to be 0.83.
Taken in the same sequence, the figures for `Cc1nc(C(C)C)c(Cc2ccc(F)cc2)c(N2CCN(C(=O)c3cccs3)CC2)n1` were -4% and 0.67.
Taken in the same sequence, the figures for `O=C(Nn1c(C2CCCCC2)nc2ccccc2c1=O)c1cccc(Cl)c1` were -11% and 1.27.
For `CCCN1C(=O)N[C@@H](Cc2ccc(O)cc2)C1=O`, the “% Inhibition” value was 0% and the Z score was -0.05.
For `Cc1nnsc1C(=O)Nc1cc2c(cc1Br)CCC2` the same measures were -5% and 0.53.
Regarding `c1ccc(C(NCc2nc(C3CC3)no2)c2ccccc2)cc1`, the “% Inhibition” value is listed as -12% and the Z score is recorded as 1.28.
As to `CN1CCN(CCCC2CCCC2)C[C@@H]1CCO`, the “% Inhibition” value is recorded as -12% and the Z score amounted to 1.39.
As for `Nc1ccc2c(c1)N(C(=O)C1CCCC1)CC2`, the “% Inhibition” value is on record as -14% and the Z score is listed as 1.61.
Regarding `COCC(=O)Nc1cc(C2CC2)nn1-c1nc(C)cc(=O)[nH]1`, the “% Inhibition” value was found to be 4% and the Z score is -0.78.
Regarding `CNc1cc(C)nc(-c2cccc(C(=O)NCCN3CCCCC3=O)c2)n1`, the “% Inhibition” value came out at 8% and the Z score is on record as -1.3.
For the compound `Cc1ccc([C@H](CNC(=O)c2snnc2C)N2CCC(C)CC2)o1`, the “% Inhibition” value worked out at 0% and the Z score is -0.06.
Turning to `C[C@@H](C(=O)N1CC(=O)Nc2ccccc21)N(C)CCc1nccs1`, the “% Inhibition” value is given as -4% and the Z score was found to be 0.81.
With `Cc1ccc(C)c(C(C)NC(=O)c2cc(C(=O)NC(C)c3cc(C)ccc3C)cc(C(=O)NC(C)c3cc(C)ccc3C)c2)c1` (stereo not drawn), the “% Inhibition” value is 0% and the Z score is reported as 0.05.
Taken in the same sequence, the figures for `Cc1cccc([C@H]2CCCN(C(=O)c3ccsc3)C2)c1` were -5% and 0.94.
As for `CC1CC2CCCCC2N1C(=O)c1cc[nH]c(=O)c1` (stereo not drawn), the “% Inhibition” value was -9% and the Z score is given as 1.43.
As to `CC(C)N(C)C(=O)[C@H]1CC(=O)N(C(C)C)C1`, the “% Inhibition” value is -5% and the Z score amounted to 0.63.
Consider `COc1ccccc1-c1nc2ccc(C)cn2c1NC(=O)CCC1CCCC1`, for which the “% Inhibition” value was -3% and the Z score was found to be 0.42.
In the case of `Cc1nc(NC(=O)c2cc(C3CC3)on2)sc1C(=O)N(C)C`, the “% Inhibition” value is on record as -8% and the Z score is listed as 1.57.
On to `O=c1[nH]nc(CCNc2ccc(Cl)cn2)[nH]1`, for which the “% Inhibition” value is on record as 4% and the Z score was -0.44.
For the compound `CN(C(=O)c1ccc(S(=O)(=O)NC2CC2)o1)C1CCCCC1`, the “% Inhibition” value is 1% and the Z score is on record as -0.24.
Take `C[C@]1(CS(=O)(=O)NCCc2cnoc2)CC1(Cl)Cl`: the “% Inhibition” value is on record as -6% and the Z score amounted to 0.86.
Consider `O=C(Cc1cccs1)Nc1ccc(-c2nnc[nH]2)cc1`, for which the “% Inhibition” value is on record as 1% and the Z score is reported as -0.11.
As to `Cc1c(NC(=O)Nc2cnc3c(c2)CCCC3)cnn1C`, the “% Inhibition” value is listed as 10% and the Z score is listed as -1.29.

One may read the % Inhibition as the drop in the measured response relative to a control, in per cent.

The record behind these values is ChEMBL document CHEMBL4888484, “Replenishing the malaria drug discovery pipeline: Screening and hit evaluation of the MMV Hit Generation Library 1 (HGL1) against asexual blood stage Plasmodium falciparum ,using a nano luciferase reporter read-out” (2022).
